Screen size: about 150,000 compounds; about 540 (0.36%) showed an effect of 50% or more. Some of the results follow.
System: Plasmodium falciparum
Assay: Primary screen in NF54 nanoGlo assay, in single point, at 2uM, 72h; a lower Z score goes with more inhibition
Format: functional, Erythrocyte
Conditions: timepoint 72 hour

Structure (SMILES)	% Inhibition [%]	Z score
O=C(c1ccns1)N(Cc1ccccc1)CC1(O)CCOCC1	-5	0.88
C[C@](O)(CCc1ccccc1)C(=O)Nc1ncccc1O	-2	0.26
CCc1n[nH]c(C)c1-c1ccc2c(c1)OCCO2	-6	0.87
Clc1ccc(-c2nc3cnccn3c2Nc2ccc3c(c2)OCCO3)s1	-18	1.8
COCC1(CNc2cc(OC)nc(N)n2)CCCC1	-1	0.14
O=C(c1c(F)cccc1F)N1CCN(Cc2nc(C3CC3)no2)CC1	4	-0.6
CCCc1nc(N2CCN(C(=O)Nc3cccc(F)c3)CC2)c2c(C)nn(-c3ccccc3)c2n1	10	-1.41
COCc1nc(CNC(=O)C2(C(F)(F)F)CCCCC2)cs1	-5	0.76
CN1CC[C@@]2(CCC1=O)CN(C(=O)OCc1ccccc1)CCN2C	-1	0.1
CC(C)c1ccc(NC(=O)[C@H]2CC(=O)N(c3cccc(C(=O)Nc4ccccc4)c3)C2)cc1	-16	1.53
Cc1ccc(-c2n[nH]c(=O)c3c2CCCC3)cc1S(=O)(=O)N1CCCC[C@@H]1C	10	-1.75
CC(C)(CN1CCOCC1)NC(=O)C[C@H]1CCCOC1	-10	1.35
CCn1cc(CN2CCC(C(=O)NCc3cc(OC)ccc3OC)CC2)c2cc(OC)ccc21	-10	1.62
COc1ncccc1C(=O)Nc1ccc2c(c1)CCC(=O)N2	-6	0.63
CCOc1cccc(CN2CCC(C)(c3noc(C4CCOCC4)n3)CC2)c1	-13	1.51
O=C(C[C@]1(c2cccc(F)c2)CC(=O)N(C2CCCC2)C1=O)N1CCC(O)(c2ccccn2)CC1	-14	1.89
Cc1ccc(NC(=O)C(=O)NCc2nc(C)no2)c(Cl)c1	-14	1.42
O=C(Cc1cccnc1)NC1CCCC1Oc1ccccc1 (stereo unspecified)	1	-0.09
CCN(Cc1nnc(C)n1CC)C[C@H]1COc2ccccc2O1	7	-1.01
CC[C@@H](C(=O)Nc1nccs1)N1CCC(c2nnc[nH]2)CC1	-6	0.95
O=C(Nc1ccncc1)c1cc(C2CC2)n[nH]1	-7	1.41

Structure (SMILES)	% Inhibition [%]	Z score
CN(C)[C@H]1CCN(C(=O)c2cnn(-c3nccc(-c4ccccc4C(F)(F)F)n3)c2C2CC2)C1	-21	4.1
CCn1cnc2c1CCN(C(=O)Nc1cc([C@@H]3CCCO3)nn1C)C2	1	-0.15
O=C(Nc1cccc2ccccc12)c1cccc(NCc2ccc3c(c2)OCO3)c1	2	-0.31
Cc1cc(C)n(-c2nc3c(c(=O)n2CC(=O)N(C)c2ccccc2)CCC3)n1	-13	1.49
CCc1nnc(CNC(=O)N2CC3(C2)CC3(F)F)s1	-10	0.97
CCN1CC(=O)N[C@H]2CN(C(=O)CCn3ccnc3C)CC[C@@H]2OCc2cccc(c2)Oc2cc(OC(C)C)cc(c2)C1=O	27	-1.33
COC(=O)C1CCCC(C(=O)Nc2nnc(C(F)F)s2)C1 (stereo unspecified)	2	-0.24
CCN(CC1CCOCC1)C(=O)Nc1ccc2ccccc2c1	-3	0.55
CCc1nc(CCNS(=O)(=O)N2CCC[C@H](C)C2)sc1C	-8	0.99
CC1CCCCN1S(=O)(=O)C1CCS(=O)(=O)C1 (stereo unspecified)	-1	0.07
CCCC1C(c2ccc(OC)cc2)NC(c2ccc(OC)cc2)CC1(O)C#Cc1ccccc1 (stereo unspecified)	-5	0.74
COc1ccc(NC(=O)c2c(-c3ccccc3)nnc3ccc(C)cc23)cc1OC	1	-0.15
CC1CCN(C[C@@H](O)CNc2nnc(C(F)(F)F)s2)CC1	31	-0.1
NC(=O)C1CCN(C(=O)Cc2ccc(-c3ccccc3)cc2)CC1	-4	0.36
CCCC[C@@]1(O)COC2(CN(C(=O)c3ccnn3CC)C2)C1	0	-0.03
CC1CCCCN1C(=O)CN1CCN(C(=O)C(C)n2ccnc2-c2ccccc2)CC1 (stereo unspecified)	-5	0.47
CCc1c(C(=O)N(C)Cc2nc(C)cs2)c(=O)cc(C)n1C[C@H]1CCCN1CC	-2	0.22
Cn1c2c(cc(C(=O)NC[C@@H]3COc4ccccc4C3)c1=O)CCCC2	-3	0.48
COc1cccc(C(=O)N2CCN(c3nnc(C(C)C)o3)CC2)c1	-5	0.62
N#Cc1ccc([C@H]2CC(O)=Nc3cccc4c3c2cn4Cc2cccc(F)c2)cc1	-11	1.41
CCCC1CC1NC(=O)N1CC(c2ccccc2)C2COCCC21 (stereo unspecified)	-1	0.07

Structure (SMILES)	% Inhibition [%]	Z score
Cc1ccc(NC(=O)C2CCN(S(=O)(=O)c3ccc4c(c3)C[C@H](C)N4C(=O)C3CCC3)CC2)cc1	-14	2.25
O=C(c1ccccc1-n1ccnn1)N1CCn2c1nc1ccccc12	-6	0.85
COc1ccc(-n2c(=O)[nH]c3nc(N4CCN(c5ccccn5)CC4)ncc3c2=O)cc1	28	-3.63
COc1ccc(C)cc1NC(=O)c1coc(NC(=O)Cc2c(C)noc2C)n1	0	0.06
Clc1cccc(OC2CN(C[C@H]3CCCO3)C2)c1	6	-1.2
Cc1cc(O)ccc1NC(=O)Nc1cccnn1	-11	1.57
COc1cc(F)ccc1[C@H](C(=O)O)N(C)CCO	-24	2.38
CCN(CC(=O)NCC1CCC1)C1CN(C(=O)OC(C)(C)C)C1	-4	0.57
CCn1ccc(C(=O)N2CC(C)(C)[C@H]2c2ccccc2)n1	-2	0.28
O=C(Cn1cncc(C(=O)NC2CCCC2)c1=O)Nc1ccc(F)cc1F	-4	0.59
O=C1C2C3C=CC(C3=C3CCCC3)C2C(=O)N1c1cccc(C(F)(F)F)c1 (stereo unspecified)	-18	1.95
Cc1ccc(N2CCN(C(=O)c3cc(-c4cccc5ccccc45)[nH]n3)CC2)cc1	-7	1.05
Cn1nccc1C1CC2CCC(C1)N2C(=O)CS(C)(=O)=O (stereo unspecified)	-23	2.12
COc1cc(C(=O)Nc2ccc(-n3cc(Br)cn3)nc2)cc2c1OCCCO2	2	-0.3
Cn1cncc1CN1CCCC[C@H]1c1nc2ccccc2[nH]1	-1	0.19
Cc1cc([C@@](C)(O)CNC(=O)c2ccc(N3CCCC3)nc2)c(C)o1	-5	0.46
Cc1nccc(O[C@H]2CCN(C(=O)CC(F)(F)F)C2)n1	-12	1.83
CCN(CCO)S(=O)(=O)c1cc(C)sc1C	-8	1.16
CCCCn1c(N)c(N(C(=O)c2ccc(=O)n(C)n2)C2CCCC2)c(=O)[nH]c1=O	-11	1.47
CC(=O)N(Cc1nn(C)c2c1CN(Cc1ccc(OCC(N)=O)cc1)CC2)c1ccccc1	-15	2.59
O=C(COc1ccccc1)c1ccc2c(c1)N(Cc1nc(C(=O)NCC3CC3)co1)C(=O)CO2	-7	1.1

Structure (SMILES)	% Inhibition [%]	Z score
Cc1nc(C(=O)NCc2ccc(S(=O)(=O)N3CCOCC3)s2)c[nH]1	37	-3.71
CC(O)CC(CNC(C)C(C)(C)C)c1ccccc1 (stereo unspecified)	-5	0.59
Cc1noc(CN[C@H]2CCCc3cc(F)ccc32)n1	-3	0.49
CCC[C@@H](C#N)NS(=O)(=O)c1ccc(C(=O)OC)nc1	-7	1.17
C#CCNC(=O)NCc1ccccc1Br	-5	0.52
O=C(O)CCN1CC[C@H](OCCCc2ccccc2)C1	-16	2.35
O=C(CCn1ccc2cc(S(=O)(=O)N3CCCCC3)ccc21)N1CCN(c2ccccc2F)CC1	33	-0.89
Cc1noc(CCNC(=O)c2cccc(Br)c2C)n1	-5	0.85
O=C(COc1cccc(N2C(=O)c3cc(Cl)c(Cl)cc3C2=O)c1)c1ccc(F)cc1	-6	1.12
CC[C@@H](c1cccnc1)N(C)C(=O)NCc1cncn1CC	4	-0.45
C[C@@H](Cc1csc2ccccc12)NC(=O)c1ccc(F)c(F)c1	-6	0.74
CCCN(C(=O)[C@H]1CCCN(C2CCN(Cc3ccncc3)CC2)C1)C1CCCC1	-9	1.74
Nc1nc(CN[C@H]2CCC(=O)N(CC3CC3)CC2)cs1	6	-1.06
CCN1CCN(C(=O)Nc2cc(Cl)c3c(c2)NC(=O)CO3)[C@@H](C)C1=O	-5	0.94
CN(C(=O)c1c2n(c(=O)n1C)CCCC2)c1c(F)cccc1F	-10	1.87
Cc1nn(C(C)(C)C)c(C)c1C(=O)Nc1ccc(Nc2ccccc2)cc1	-4	0.5
O=C(c1cccc(-n2cnnn2)c1)N1CCN(CCn2ncccc2=O)CC1	-5	0.67
O=C(NCCn1ccnc1-c1ncccn1)c1ccc(Br)o1	-12	1.48
CC[C@H](C)NC(=O)c1ccc(NS(C)(=O)=O)c(C)c1	-11	1.16
Cc1cccc(C(=O)NCC[C@H]2CN(C(C)C)CCO2)c1Cl	-17	2.55

— ChEMBL document CHEMBL4888484, “Replenishing the malaria drug discovery pipeline: Screening and hit evaluation of the MMV Hit Generation Library 1 (HGL1) against asexual blood stage Plasmodium falciparum ,using a nano luciferase reporter read-out” (2022)
